Data published in publication PMC6919601, “Identification of Plasmodium dipeptidyl aminopeptidase allosteric inhibitors by high throughput screening” (PLoS ONE, 2019).
Hit rate of the full screen: of about 110,000 compounds, about 230 (0.21%) showed an effect of 50% or more. The list shows a part of the results.

target: DPAP1 (Plasmodium falciparum, UniProt Q8IIJ9); test: primary screen, percent inhibition; read by cleavage of a fluorogenic dipeptide substrate; higher = more effect of the substance; set-up: species or system P. falciparum D10 trophozoite lysates; single well
Sequence (Q8IIJ9 whole entry, looked up): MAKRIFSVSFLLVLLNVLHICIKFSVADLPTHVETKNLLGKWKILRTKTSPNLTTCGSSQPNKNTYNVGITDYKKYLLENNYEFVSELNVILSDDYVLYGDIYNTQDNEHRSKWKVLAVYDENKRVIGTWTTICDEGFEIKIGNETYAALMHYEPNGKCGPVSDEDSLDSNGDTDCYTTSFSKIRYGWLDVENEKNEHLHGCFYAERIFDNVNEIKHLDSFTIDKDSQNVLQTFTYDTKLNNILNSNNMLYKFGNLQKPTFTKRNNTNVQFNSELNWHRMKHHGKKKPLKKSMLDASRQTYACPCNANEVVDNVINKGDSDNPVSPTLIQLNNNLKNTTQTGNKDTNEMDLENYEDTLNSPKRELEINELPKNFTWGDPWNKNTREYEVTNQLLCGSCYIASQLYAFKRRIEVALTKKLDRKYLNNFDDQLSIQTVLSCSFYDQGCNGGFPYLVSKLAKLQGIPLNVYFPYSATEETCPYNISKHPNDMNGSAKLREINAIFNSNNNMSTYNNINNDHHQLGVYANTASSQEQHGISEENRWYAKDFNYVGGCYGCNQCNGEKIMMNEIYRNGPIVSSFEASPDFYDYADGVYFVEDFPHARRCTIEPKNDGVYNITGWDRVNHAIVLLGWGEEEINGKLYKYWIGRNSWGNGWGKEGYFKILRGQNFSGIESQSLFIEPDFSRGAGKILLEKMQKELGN
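Further: 30 min substrate incubation versus DMSO and 10 µM JCP410 controls.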

First: Cc1nc2c3ccccc3n3c(CCCC(=O)N4CCOCC4)nnc3n2n1
Second: Oc1ccc(Nc2nc(N3CCOCC3)c3ccccc3n2)cc1
The “% Inhibition @ 10 uM” value of the first is lower: -10.6% for the first, 0.843% for the second.

Compared with `CC1CCCC(NCCN2CCOCC2)C1` (centres unmarked), `CC(C)(C)C1CCC(OCC(O)CN2CCOCC2)CC1` (centres unmarked) is higher in “% Inhibition @ 10 uM” value: -3.35% for the first, 3.15% for the second.

First: COc1nc(N2CCCC2)nc(-n2ccnc2)n1
Second: COCCNC(=O)C1CCN(c2nc(-c3ccc(OC)cc3)no2)CC1
The “% Inhibition @ 10 uM” value of the first is lower: -6.09% for the first, -3.1% for the second.

First: Cc1ccc2c(c1)C(=O)N(CCCCO)C2=O
Second: CCCCN1C(=O)c2cccc3c(Cl)ccc1c23
The “% Inhibition @ 10 uM” value of the first is higher: -1.52% for the first, -2.28% for the second.

Going from `Cc1cc2nc(SCCN3CCCC3)[nH]c2cc1C` to `CCCN1CCN(CCCNC(=O)Cn2nc(C)n3c(cc4cc(OC)ccc43)c2=O)CC1`, the “% Inhibition @ 10 uM” value rises from 3.01% to 3.29%.

Going from `CCN(CC)S(=O)(=O)c1cc(C(=O)O)ccc1Br` to `Cc1nc2ccccc2c(O)c1S(=O)(=O)O`, the “% Inhibition @ 10 uM” value rises from 2.54% to 9.08%.

First: COc1ccccc1-c1nc(S(=O)(=O)c2ccc(C)cc2)c(N2CCOCC2)o1
Second: CCOc1ccccc1NS(=O)(=O)c1ccc(OC)cc1
The “% Inhibition @ 10 uM” value of the first is higher: 2.27% for the first, -1.37% for the second.

First: CO/C(O)=C1\C(C)=NC2=C(C(=O)CC(c3ccccc3Cl)C2)C1c1cc(OC)c(OC)c(OC)c1 (centres unmarked)
Second: COc1cc(C2CC(C(F)(F)F)n3ncc(C(=O)NC(C)(C)C)c3N2)cc(OC)c1OC (centres unmarked)
The “% Inhibition @ 10 uM” value of the first is higher: 4.35% for the first, 0.0504% for the second.

First: O=C(Nc1ccc(-c2cnc(-c3ccc(NC(=O)C4CC4)cc3)nc2)cc1)C1CC1
Second: COc1cccc(C(=O)Nc2ccc(S(=O)(=O)N3CCC(C)CC3)cc2)c1
The “% Inhibition @ 10 uM” value of the first is higher: 0.189% for the first, 0.13% for the second.

Going from `CCSC1=N/C(=C\c2ccc3c(c2)OCO3)C(=O)S1` to `CC(NC(=O)Cn1sc2ccccc2c1=O)c1ccc2c(c1)OCCO2` (centres unmarked), the “% Inhibition @ 10 uM” value falls from 0.884% to -4.59%.

First: Cc1cccc(-n2cc3c(c2-c2ccccc2)c(=O)n(C)c(=O)n3C)c1
Second: Cc1nc2ccccc2c(=O)n1-c1ccccc1O
The “% Inhibition @ 10 uM” value of the first is lower: -5.85% for the first, -3.44% for the second.

Going from `C=CCNc1nc(OC(C(F)(F)F)C(F)(F)F)nc(N2CCOCC2)n1` to `COc1cccc(C(=O)NC2(C(F)(F)F)N=C3SCCN3C2=O)c1` (centres unmarked), the “% Inhibition @ 10 uM” value falls from 3.34% to -2.5%.

Going from `c1cncc(-c2nc3ccc4ccccc4c3c3c2CCC3)c1` to `N#Cc1c(SCC(=O)c2ccccc2)nc2c(c1-c1cccnc1)CCCC2`, the “% Inhibition @ 10 uM” value rises from -9.49% to 0.484%.

First: OCCN(Cc1ccccc1)Cc1cc(F)ccc1F
Second: OCCN1CCN(Cc2ccc3ccccc3c2)CC1
The “% Inhibition @ 10 uM” value of the first is lower: 1.57% for the first, 3.85% for the second.

Going from `CC(Oc1ccccc1)C(=O)NCc1ccco1` (centres unmarked) to `O=C(CSc1c2c(nc3ccccc13)CCCC2)NCc1ccco1`, the “% Inhibition @ 10 uM” value rises from -3.85% to -3.23%.

Compared with `O=C(c1ccccc1)N1CCN(C(=O)c2ccccc2)CC1`, `O=C(c1cc2ccc3cccnc3c2[nH]1)N1CCN(C(=O)c2ccco2)CC1` is higher in “% Inhibition @ 10 uM” value: -4.24% for the first, 4.6% for the second.

Going from `CN1C(=O)c2ccccc2C(C(=O)NCCCN2CCc3ccccc3C2)C1c1c[nH]c2ccccc12` (centres unmarked) to `Cc1nn(C(C)C(=O)NC2CCN(Cc3ccccc3)CC2)c(=O)c2c1sc1ccccc12` (centres unmarked), the “% Inhibition @ 10 uM” value falls from -0.668% to -1.33%.

Going from `CCN1C(=O)C(=CNc2ccc(F)cc2)C(=O)N(CC)C1=O` to `CCN1C(=O)S/C(=C/c2cn(C)c3ccccc23)C1=O`, the “% Inhibition @ 10 uM” value rises from -4.75% to 3.86%.

Going from `CCCOc1ccc(C2CC(=O)Nc3c2ccc2ccccc32)cc1OC` (centres unmarked) to `CCCN1C(=O)c2[nH]nc(-c3ccccc3O)c2C1c1ccc(OCC)cc1` (centres unmarked), the “% Inhibition @ 10 uM” value falls from 2.17% to 0.366%.

First: CN1C(=O)C(C)(C(=O)Nc2ccccc2Cl)c2ccccc21 (centres unmarked)
Second: NC(=O)c1cc(NC(=O)C(c2ccccc2)c2ccccc2)c(Cl)cc1Cl
The “% Inhibition @ 10 uM” value of the first is lower: -2.32% for the first, 12.7% for the second.

Going from `COc1cccc(OCC(O)CN2CCCC(C)C2)c1` (centres unmarked) to `COc1ccc(C2(O)C[N+](c3ccccc3)=C3SCCCN32)c(F)c1` (centres unmarked), the “% Inhibition @ 10 uM” value rises from -1.44% to 7.33%.

Going from `Cc1nnc(N2CCC(C(=O)NCCCOC(C)C)CC2)c2nn(-c3ccccc3)c(C)c12` to `Cc1cc(C)c2nc(N3CCC(C(=O)NC(C)c4ccccc4)CC3)sc2c1` (centres unmarked), the “% Inhibition @ 10 uM” value falls from -2.49% to -3.35%.

Compared with `Cc1n[nH]c(C)c1CCc1nc2c3ccccc3nc(NCc3ccccc3Cl)n2n1`, `Cc1nc2c3cccnc3nn2c(C)c1CCC(=O)NCc1ccc2c(c1)OCO2` is higher in “% Inhibition @ 10 uM” value: 0.981% for the first, 1.62% for the second.

Going from `COc1cc(OC)c2cc(OC)c(OC)cc2n1` to `COc1cc(O)c(CCC(=O)c2ccc(OC)c(OC)c2)c(OC)c1`, the “% Inhibition @ 10 uM” value rises from -0.478% to 5.99%.

First: Cc1cccnc1NC(=O)C(CCS(C)(=O)=O)N1Cc2ccccc2C1=O (centres unmarked)
Second: CC(C)CC(C(=O)N1CCN(c2ccccn2)CC1)N1Cc2ccccc2C1=O (centres unmarked)
The “% Inhibition @ 10 uM” value of the first is lower: -4.38% for the first, 0.789% for the second.

First: CCCCNC(=O)c1nc(C)c(C)nc1C(=O)Nc1ccccc1
Second: CCCCCC(=O)Nc1nc(-c2ccccc2)c(C)s1
The “% Inhibition @ 10 uM” value of the first is higher: 5.24% for the first, -1.06% for the second.

First: CC(C)(CO)NC(=O)c1cc(-c2ccccc2F)no1
Second: Cc1ccc(C)c(NC(=O)/C(=C\c2ccco2)NC(=O)c2ccccc2)c1
The “% Inhibition @ 10 uM” value of the first is lower: -0.326% for the first, 0.76% for the second.

Going from `O=C1CC(N2CCN(c3ccc(F)cc3)CC2)C(=O)N1c1ccc(Br)cc1` (centres unmarked) to `Fc1ccc(N2N=C(/C=C/c3cccs3)CC2c2cccs2)c(F)c1` (centres unmarked), the “% Inhibition @ 10 uM” value rises from -2.63% to -2.6%.

Compared with `CCCCN(C)CCCNC(=O)Cn1nc(-c2ccccc2)ccc1=O`, `CCCn1c2ccccc2c2cnn(CC(=O)NCCN(Cc3ccccc3)C(C)C)c(=O)c21` is lower in “% Inhibition @ 10 uM” value: 0.514% for the first, -5.56% for the second.

First: CN1CCN(Cc2nnc(S)n2-c2ccccc2Cl)CC1
Second: O=C(c1ccccc1F)N1CCN(Cc2ccncc2)CC1
The “% Inhibition @ 10 uM” value of the first is lower: 5.42% for the first, 8.6% for the second.

First: C=CCn1cc(/C=C2/SC(=O)N(CC)C2=O)c2ccccc21
Second: Cc1cc(C=O)cc2c3ccccc3n(C)c12
The “% Inhibition @ 10 uM” value of the first is higher: -0.795% for the first, -1.68% for the second.

Going from `CCc1nnc(SCC(=O)NCCc2ccc(OC)c(OC)c2)c2cc3sccc3n12` to `COc1ccc(Cn2nnc3c(O)nc(C(=O)NCCc4ccc(F)cc4)nc32)cc1OC`, the “% Inhibition @ 10 uM” value falls from 4.92% to -1.82%.

Compared with `Cc1ccc(C(C)C)c(Oc2ccc(NC(=O)CCC(=O)O)cc2)c1`, `CCOc1cc(NC(=O)C(C(F)(F)F)C(F)(F)F)c(OCC)cc1NC(=O)c1ccccc1` is lower in “% Inhibition @ 10 uM” value: 2.02% for the first, 1.88% for the second.

First: NC1=C(c2nc3ccccc3[nH]2)C(=O)CN1CCc1ccccc1
Second: Cc1ccc(CSc2nc3nccnc3c(=O)n2CCc2ccccc2)cc1
The “% Inhibition @ 10 uM” value of the first is lower: 0.486% for the first, 5% for the second.

Compared with `O=C(CSc1nnc(C2COc3ccccc3O2)o1)N1CCCC1` (centres unmarked), `Cc1ccccc1C(=O)c1cccn1CC(=O)NCCN1CCN(C)CC1` is lower in “% Inhibition @ 10 uM” value: 8.14% for the first, 2.76% for the second.

First: Cn1c(C(=O)N2CCC(C(=O)N3CCN(C4CCCCC4)CC3)CC2)cc2sccc21
Second: O=C(Cn1ncn2c(cc3sccc32)c1=O)NC1CCCc2ccccc21 (centres unmarked)
The “% Inhibition @ 10 uM” value of the first is higher: 0.137% for the first, -7.1% for the second.

Compared with `O=C1NC(=O)C(=Cc2ccc(-c3ccc([N+](=O)[O-])cc3)o2)C(=O)N1`, `Cc1ccc(-n2c3c(c(O)cc2=O)C(=O)CC(C)(C)C3)cc1` is higher in “% Inhibition @ 10 uM” value: 2.13% for the first, 2.36% for the second.

Compared with `CSc1ncc(C(=O)NC(C)c2ccccc2)c(-c2ccccc2)n1` (centres unmarked), `Cc1cc(-c2ccccc2)nc2cc(C(N)=O)nn12` is higher in “% Inhibition @ 10 uM” value: -3.01% for the first, 7.85% for the second.

Compared with `COc1cc2c(C(=O)NCCC3=CCCCC3)cn(CC(C)C)c(=O)c2cc1OC`, `COc1cc2c(cc1OC)C(COc1ccc3c(C)cc(=O)oc3c1)N(C(=O)C1CC1)CC2` (centres unmarked) is higher in “% Inhibition @ 10 uM” value: 4.02% for the first, 4.14% for the second.

Compared with `C=CCOC(=O)C1=C(C)N=C2CC(C)(C)CC(O)=C2C1c1cccc(F)c1` (centres unmarked), `CCOC(=O)c1ccc2nc(NC(=O)CSC3=NC(=O)C(c4ccccc4)C(=O)N3)sc2c1` (centres unmarked) is higher in “% Inhibition @ 10 uM” value: -1.82% for the first, 22.7% for the second.

First: COc1ccc(C)cc1S(=O)(=O)NCC12CC3CC(CC(C3)C1)C2
Second: C=CCNC(=O)c1ccccc1NS(=O)(=O)c1ccc(OC)c(Cl)c1Cl
The “% Inhibition @ 10 uM” value of the first is higher: 1.72% for the first, -6.08% for the second.

Going from `COC(=O)c1ccc(C2c3c(oc4ccc(C)cc4c3=O)C(=O)N2c2ccccn2)cc1` (centres unmarked) to `CCN(c1cccc2ccccc12)S(=O)(=O)c1ccc(Cl)nc1`, the “% Inhibition @ 10 uM” value falls from 0.415% to -0.116%.

First: O=C(/C=C/c1cccc(Cl)c1)NCCCNC1=NS(=O)(=O)c2ccccc21
Second: COc1ccc(/C=C2\N=C(c3ccc(Cl)cc3Cl)OC2=O)c(OC)c1
The “% Inhibition @ 10 uM” value of the first is higher: 8.58% for the first, -4.84% for the second.

First: CCO/C(O)=C1/C(C)=Nc2nc(SCc3cccnc3)nn2C1c1ccccc1C (centres unmarked)
Second: CCOCCCNCc1c(C(=O)O)c(C)n(Cc2ccccc2C)c1C
The “% Inhibition @ 10 uM” value of the first is lower: -6.08% for the first, -0.23% for the second.

Going from `CCOC(=O)c1cc(S(=O)(=O)N2CCOCC2)cn1C` to `CSc1ccc(CCNC(=O)Cn2ccc3cc(S(=O)(=O)N4CCC(C)CC4)ccc32)cc1`, the “% Inhibition @ 10 uM” value rises from -1.06% to 8.75%.

Going from `CC(Cc1cccc(C(F)(F)F)c1)N[C@H]1CC[C@H](O)CC1` (some centres unmarked) to `Cc1occc1C(=O)Nc1cc(C(F)(F)F)ccc1Cl`, the “% Inhibition @ 10 uM” value rises from -1.41% to 1.88%.

First: CCCN(CCC)C(=O)C1CCN(c2cc(C)nc3c(-c4ccc(OC)c(OC)c4)c(C)nn23)CC1
Second: CCCCOn1c(C)c(C(=O)OCC)c2c3nonc3ccc21
The “% Inhibition @ 10 uM” value of the first is lower: -3.7% for the first, -1.52% for the second.

Going from `CC(C)Cn1c2c(c(=O)[nH]c1=O)C(NC(=O)c1ccccc1F)(C(F)(F)F)C(=O)N2` (centres unmarked) to `O=C(NCc1ccc(F)cc1)c1nn2c(c1Cl)NC(c1ccco1)CC2C(F)(F)F` (centres unmarked), the “% Inhibition @ 10 uM” value rises from -5.06% to -1.22%.

First: NC(=O)CSc1nnc(-c2ccncc2)n1-c1ccc(Cl)cc1
Second: COc1cc(OC)c([C@H]2C=C(C)[C@H]3C[C@@H]2C3(C)C)c(OC)c1
The “% Inhibition @ 10 uM” value of the first is higher: -3.1% for the first, -9.66% for the second.
